# Source: the supplement of paper PMC12645437, “Orthogonal IMiD-Degron Pairs Induce Selective Protein Degradation in Cells” (ACS Chemical Biology, 2025)
# Some of the results follow.
# Target: no compound (DMSO)
# Experiment: log2 fold change of degron read counts, EGFP-low vs EGFP+ sorted cells; higher = lower degron-EGFP level without compound (poor expression or instability)
# Details: compound: DMSO control; 18 h
# 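Also: jurkat cells carrying a lentiviral library of mutant zinc finger degrons fused to EGFP plus mCherry, mCherry+ cells FACS sorted, degron abundance counted by next-generation sequencing.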
row,Sequence,log2 fold change of degron read counts
1,FMCPICGHPFTQKGNLLRHIKL,0.543
2,FCCNQCGAGFTQKGNLLRHIKL,-0.433
3,FACDVCGAWFTQKGNLLRHIKL,-0.417
4,LHCNQCGFDCTQKGNLLRHIKL,-0.191
5,FDCPICGHTFTQKGNLLRHIKL,-0.8
6,FKCNQCGHIFTQKGNLLRHIKL,0.109
7,FQCNICGAAFTQKGNLLRHIKL,-0.844
8,FSCNQCGASFTQKGNLLRHIKL,-1.02
9,FHCEQCGAPFTQKGNLLRHIKL,-1.46
10,FLCEICGADFTQKGNLLRHIKL,-2.68
11,FGCNQCGHVFTQKGNLLRHIKL,0.978
12,FGCDQCGALFTQKGNLLRHIKL,-0.319
13,FWCDICGAKFTQKGNLLRHIKL,-0.874
14,FCCPVCGAIFTQKGNLLRHIKL,0.742
15,FFCEQCGAVFTQKGNLLRHIKL,-0.643
16,FGCEVCGAPFTQKGNLLRHIKL,-0.903

row,Sequence,log2 fold change of degron read counts
1,FTCPQCGAWFTQKGNLLRHIKL,0.0137
2,LSCPICGFGCTQKGNLLRHIKL,0.75
3,FKCPICGRMFTQKGNLLRHIKL,-0.374
4,LDCEICGFSCTQKGNLLRHIKL,-0.355
5,FKCNQCGACFTQKGNLLRHIKL,-0.797
6,FTCNQCGANFTQKGNLLRHIKL,-1.17
7,FGCDVCGAPFTQKGNLLRHIKL,-0.577
8,FTCNQCGACFTQKGNLLRHIKL,-1.33
9,FICDVCGAEFTQKGNLLRHIKL,-1.4
10,FTCEICGHQFTQKGNLLRHIKL,-2.22
11,LACPICGFHCTQKGNLLRHIKL,0.791
12,FFCPVCGAQFTQKGNLLRHIKL,-0.0638
13,FQCEICGAGFTQKGNLLRHIKL,-1.87
14,FRCNQCGARFTQKGNLLRHIKL,-0.00986
15,FRCPICGHNFTQKGNLLRHIKL,-0.554
16,FKCEICGALFTQKGNLLRHIKL,-1.19
